# Experimental data as given in the antibiotic and cytotoxicity screens of Wong et al. (2023).
# The other results are listed elsewhere or left out.
# Tested on: HepG2
# Experiment: cytotoxicity call (relative viability < 0.9)
# Conditions: 10 µM
row,Compound,cytotoxicity call
1,Cc1cc(C(=O)Nc2cccc3c2O[C@H](CN(C)S(=O)(=O)c2ccccc2)[C@H](C)CN([C@@H](C)CO)C3=O)n(C)n1,inactive
2,Cc1ccc(S(=O)(=O)N(C)C[C@@H]2OCCCC[C@H](C)Oc3ccc(NC(=O)Nc4c(C)noc4C)cc3C(=O)N([C@H](C)CO)C[C@@H]2C)cc1,inactive
3,Cc1noc(C)c1NC(=O)N(C)C[C@@H]1Oc2c(NC(=O)Nc3ccc(C(F)(F)F)cc3)cccc2C(=O)N([C@@H](C)CO)C[C@H]1C,inactive
4,Cc1noc(C)c1S(=O)(=O)N(C)C[C@@H]1OCCCC[C@@H](C)Oc2ccc(NS(=O)(=O)c3cn(C)cn3)cc2C(=O)N([C@@H](C)CO)C[C@H]1C,inactive
5,C[C@H]1CN([C@@H](C)CO)C(=O)c2cc(NC(=O)CCCN(C)C)ccc2O[C@H]1CN(C)S(=O)(=O)c1cn(C)cn1,inactive
6,COc1ccc(NC(=O)Nc2ccc3c(c2)C(=O)N([C@@H](C)CO)C[C@H](C)[C@H](CN(C)S(C)(=O)=O)O3)cc1,active
7,COc1ccc(S(=O)(=O)N(C)C[C@H]2OCCCC[C@@H](C)Oc3ccc(NC(=O)CCCCCC(=O)Nc4ccccc4N)cc3C(=O)N([C@H](C)CO)C[C@H]2C)cc1,inactive
8,C[C@H]1CN([C@@H](C)CO)C(=O)Cc2cc(NC(=O)CCCCCC(=O)Nc3ccccc3N)ccc2O[C@@H]1CN(C)C(=O)Nc1ccccc1,inactive
9,COCC#Cc1cnc2c(c1)C(=O)N([C@H](C)CO)C[C@H](C)[C@H](CN(C)C(=O)CCN1CCCCC1)O2,inactive
10,COc1ccc2c3c([nH]c2c1)[C@@H](CO)N(C[C@]13CCN(CC1)S(=O)(=O)C)C(=O)Nc1ccc(cc1)F,inactive
11,COc1ccccc1CNC(=O)C[C@H]1C[C@H]2c3cc(NC(=O)NC4CCCC4)ccc3O[C@H]2[C@H](CO)O1,inactive
12,C[C@@H]1CCCCO[C@@H](CN(C)C(=O)NC2CCCCC2)[C@@H](C)CN([C@H](C)CO)C(=O)c2cc(NS(=O)(=O)c3ccc(Cl)cc3)ccc2O1,inactive
13,C[C@H](CO)N1C[C@H](C)[C@H](CN(C)S(=O)(=O)c2ccc(Cl)cc2)Oc2c(NS(=O)(=O)c3cn(C)cn3)cccc2C1=O,inactive
14,CN1C(=O)c2cc(NC(=O)c3cccs3)ccc2OC[C@@H]2O[C@@H](CC(=O)NCC(F)(F)F)CC[C@H]21,inactive
15,COc1cccc(-c2ccc3c(c2)O[C@H](CN(C)C(=O)C2CCOCC2)[C@H](C)CN([C@H](C)CO)S3(=O)=O)c1,inactive
16,COCC#Cc1ccc2c(c1)O[C@H](CN(C)S(=O)(=O)c1ccc(F)cc1)[C@@H](C)CN([C@@H](C)CO)S2(=O)=O,inactive
17,O=C(CN1CCOCC1)NCC[C@H]1CC[C@@H](NS(=O)(=O)c2ccc(Cl)cc2)[C@@H](CO)O1,inactive
18,CC(=O)Oc1cc2c(c(C)c1OC(C)=O)CC=C1[C@@]2(C)CC[C@@]2(C)[C@H]3C[C@](C)(C(=O)O)CC[C@]3(C)CC[C@]12C,active
19,CCCNC(=O)N1CC[C@]2(CC1)CN([C@@H](CO)c1[nH]c3cc(ccc3c12)OC)C(=O)CN1CCOCC1,inactive
20,C[C@@H]1CN([C@H](C)CO)S(=O)(=O)c2ccc(C#Cc3ccccc3)cc2O[C@@H]1CN(C)S(=O)(=O)c1cn(C)cn1,inactive
21,Cl.NCCS,inactive
22,O=C(C[C@@H]1C[C@@H]2c3cc(NC(=O)c4ccc5c(c4)OCO5)ccc3O[C@@H]2[C@H](CO)O1)NCc1cccnc1,inactive

# Tested on: S. aureus RN4220
# Experiment: growth inhibition call (relative growth <= 0.2)
# Conditions: 50 µM
row,Compound,growth inhibition call
1,C[C@H]1CN([C@@H](C)CO)C(=O)c2cc(NC(=O)Nc3cccc4ccccc34)ccc2O[C@H]1CN(C)Cc1ccncc1,inactive
2,COc1ccc(CN(C)C[C@H]2OCCCC[C@H](C)Oc3ccc(NC(=O)Nc4ccc(C(F)(F)F)cc4)cc3C(=O)N([C@@H](C)CO)C[C@@H]2C)cc1,inactive
3,C[C@H]1CN([C@@H](C)CO)C(=O)c2cccc(NC(=O)Nc3ccc4c(c3)OCO4)c2O[C@H]1CN(C)Cc1ccc(C(=O)Nc2ccccc2N)cc1,inactive
4,C[C@H]1CN([C@@H](C)CO)C(=O)CCCn2cc(nn2)CO[C@H]1CN(C)S(=O)(=O)c1cn(C)cn1,inactive
5,Cc1ccc(C2(CN3CCN4C(=O)CN(C)C(=O)[C@H]4C3)CCNCC2)nc1,inactive
6,CCN(CC)CCNC(=O)c1cc(S(C)(=O)=O)ccc1OC.Cl,inactive
7,O=c1[nH]cnc2c1ncn2C1CCC(CO)O1 (configuration not stated),inactive
8,O=c1[nH][nH]c(=O)c(Cl)c1Cl,inactive
9,COc1ccc(S(=O)(=O)N(C)C[C@H]2OCCCC[C@H](C)Oc3ccc(NC(=O)Nc4c(C)noc4C)cc3C(=O)N([C@@H](C)CO)C[C@@H]2C)cc1,inactive
10,C[C@@H]1CN([C@H](C)CO)C(=O)c2cccc(NC(=O)c3ccc(-c4nccs4)cc3)c2O[C@H]1CN(C)S(=O)(=O)c1ccc(Cl)cc1,inactive
11,C[C@H](CO)N1C[C@H](C)[C@@H](CN(C)C(=O)Nc2ccccc2)Oc2ccc(NC(=O)Cn3cnnn3)cc2C1=O,inactive
12,C[C@@H]1CN([C@H](C)CO)C(=O)Cc2cc(NS(=O)(=O)c3ccc(F)cc3)ccc2O[C@H]1CN(C)Cc1ccc(Cl)c(Cl)c1,inactive
13,C[C@H]1CN([C@@H](C)CO)C(=O)c2c(c3ccccc3n2C)-c2ccccc2CO[C@H]1CN(C)C(=O)Nc1ccc2c(c1)OCO2,inactive
14,COc1ccc(S(=O)(=O)N(C)C[C@@H]2Oc3c(NC(=O)Nc4cccc5ccccc45)cccc3C(=O)N([C@@H](C)CO)C[C@@H]2C)cc1,inactive
15,COc1ccc(S(=O)(=O)Nc2ccc3c(c2)C(=O)N([C@H](C)CO)C[C@H](C)[C@@H](CN(C)C(=O)NC(C)C)O3)cc1,inactive
16,Cc1noc(C)c1S(=O)(=O)N(C)C[C@H]1Oc2c(NS(=O)(=O)c3ccc(F)cc3)cccc2C(=O)N([C@@H](C)CO)C[C@H]1C,inactive
17,CC1C(=O)OC2CC34C5CC(C(C)(C)C)C36C(OC(=O)C6O)OC4(C(=O)O5)C21O (configuration not stated),inactive
18,C[C@H]1O[C@@H](O[C@H]2[C@@H](O)C[C@H](O[C@H]3[C@@H](O)C[C@H](O[C@H]4CC[C@@]5(C)[C@H](CC[C@@H]6[C@@H]5C[C@@H](O)[C@@]5(C)[C@@H](C7=CC(=O)OC7)CC[C@]65O)C4)O[C@@H]3C)O[C@@H]2C)C[C@H](O)[C@@H]1O,inactive
19,Cc1cc(C(=O)Nc2cccc3c2O[C@H](CN(C)S(=O)(=O)c2ccccc2)[C@H](C)CN([C@@H](C)CO)C3=O)n(C)n1,inactive
20,Cc1ccc(S(=O)(=O)N(C)C[C@@H]2OCCCC[C@H](C)Oc3ccc(NC(=O)Nc4c(C)noc4C)cc3C(=O)N([C@H](C)CO)C[C@@H]2C)cc1,inactive

row,Compound,growth inhibition call
1,Cc1noc(C)c1NC(=O)N(C)C[C@@H]1Oc2c(NC(=O)Nc3ccc(C(F)(F)F)cc3)cccc2C(=O)N([C@@H](C)CO)C[C@H]1C,inactive
2,Cc1noc(C)c1S(=O)(=O)N(C)C[C@@H]1OCCCC[C@@H](C)Oc2ccc(NS(=O)(=O)c3cn(C)cn3)cc2C(=O)N([C@@H](C)CO)C[C@H]1C,inactive
3,C[C@H]1CN([C@@H](C)CO)C(=O)c2cc(NC(=O)CCCN(C)C)ccc2O[C@H]1CN(C)S(=O)(=O)c1cn(C)cn1,inactive
4,COc1ccc(NC(=O)Nc2ccc3c(c2)C(=O)N([C@@H](C)CO)C[C@H](C)[C@H](CN(C)S(C)(=O)=O)O3)cc1,inactive
5,COc1ccc(S(=O)(=O)N(C)C[C@H]2OCCCC[C@@H](C)Oc3ccc(NC(=O)CCCCCC(=O)Nc4ccccc4N)cc3C(=O)N([C@H](C)CO)C[C@H]2C)cc1,inactive
6,C[C@H]1CN([C@@H](C)CO)C(=O)Cc2cc(NC(=O)CCCCCC(=O)Nc3ccccc3N)ccc2O[C@@H]1CN(C)C(=O)Nc1ccccc1,inactive
7,COCC#Cc1cnc2c(c1)C(=O)N([C@H](C)CO)C[C@H](C)[C@H](CN(C)C(=O)CCN1CCCCC1)O2,inactive
8,COc1ccc2c3c([nH]c2c1)[C@@H](CO)N(C[C@]13CCN(CC1)S(=O)(=O)C)C(=O)Nc1ccc(cc1)F,inactive
9,COc1ccccc1CNC(=O)C[C@H]1C[C@H]2c3cc(NC(=O)NC4CCCC4)ccc3O[C@H]2[C@H](CO)O1,inactive
10,C[C@@H]1CCCCO[C@@H](CN(C)C(=O)NC2CCCCC2)[C@@H](C)CN([C@H](C)CO)C(=O)c2cc(NS(=O)(=O)c3ccc(Cl)cc3)ccc2O1,inactive
11,C[C@H](CO)N1C[C@H](C)[C@H](CN(C)S(=O)(=O)c2ccc(Cl)cc2)Oc2c(NS(=O)(=O)c3cn(C)cn3)cccc2C1=O,inactive
12,CN1C(=O)c2cc(NC(=O)c3cccs3)ccc2OC[C@@H]2O[C@@H](CC(=O)NCC(F)(F)F)CC[C@H]21,inactive
13,COc1cccc(-c2ccc3c(c2)O[C@H](CN(C)C(=O)C2CCOCC2)[C@H](C)CN([C@H](C)CO)S3(=O)=O)c1,inactive
14,COCC#Cc1ccc2c(c1)O[C@H](CN(C)S(=O)(=O)c1ccc(F)cc1)[C@@H](C)CN([C@@H](C)CO)S2(=O)=O,inactive
15,O=C(CN1CCOCC1)NCC[C@H]1CC[C@@H](NS(=O)(=O)c2ccc(Cl)cc2)[C@@H](CO)O1,inactive
16,CC(=O)Oc1cc2c(c(C)c1OC(C)=O)CC=C1[C@@]2(C)CC[C@@]2(C)[C@H]3C[C@](C)(C(=O)O)CC[C@]3(C)CC[C@]12C,active
17,CCCNC(=O)N1CC[C@]2(CC1)CN([C@@H](CO)c1[nH]c3cc(ccc3c12)OC)C(=O)CN1CCOCC1,inactive
18,C[C@@H]1CN([C@H](C)CO)S(=O)(=O)c2ccc(C#Cc3ccccc3)cc2O[C@@H]1CN(C)S(=O)(=O)c1cn(C)cn1,inactive
19,Cl.NCCS,inactive
20,O=C(C[C@@H]1C[C@@H]2c3cc(NC(=O)c4ccc5c(c4)OCO5)ccc3O[C@@H]2[C@H](CO)O1)NCc1cccnc1,inactive
